Test results published in PubChem BioAssay AID1645882 (National Center for Advancing Translational Sciences (NCATS), 2021).
The whole screen tested about 16,000 compounds, of which about 120 (0.75%) were called active. About 4% were inconclusive and are not listed. Calls follow the shape of the dose curve; as a rule, active = well fitted inhibition curve with a large enough effect; inconclusive = small, poorly fitted or top-dose-only effect; inactive = no such curve, though single readings can be large or run the other way. The list shows a part of the results.

Target: Rap guanine nucleotide exchange factor 3 (Homo sapiens) (UniProt O95398)
Assay: Validation qHTS for antagonist of cAMP-regulated guanine nucleotide exchange factor 3 (EPAC1); also: nearly all actives have a fitted effect of over 75% in size
Conditions: EPAC1 Rap1B-BODIPY-GDP exchange, fluorescence; series mostly up to 150 µM; activity change, negative = inhibition: at the top concentration
From the text: Assay Provider (PI): Xiaodong Cheng Ph.D.
The University of Texas Medical Branch, […], TX
In multi-cellular eukaryotic organisms, the effects of cAMP are transduced by two ubiquitously-expressed intracellular cAMP receptors, the classic protein kinase A/cAMP-dependent protein kinase (PKA/cAPK) and the more recently discovered exchange protein directly activated by cAMP/cAMP-regulated guanine nucleotide exchange factor (EPAC/cAMP-GEF). Both PKA and EPAC are ubiquitously expressed in all tissues, and an increase in intracellular cAMP levels will lead to the activation of both PKA and EPAC. Therefore, careful dissections of the individual role and relative contribution of EPAC and PKA within the overall cAMP signaling in various model systems are critical for further elucidating the mechanism of cAMP signaling. To date no EPAC-specific antagonists and agonist, as well as isoform-specific agonists have been reported, and developing EPAC-specific pharmacological probes to determine the physiological functions that EPAC play in the overall cAMP-mediated signaling remains a major challenge within the research field. Furthermore, identified regulators of EPAC may lead to new mechanism-based therapeutic strategies specifically targeting the EPAC / cAMP-signaling components as EPAC has been implicated to play important roles in major human pathological conditions such as diabetes, heart disease, and cancer.
This qHTS will be used to screen the Molecular Libraries Small Molecule Repository (MLSMR) as a concentration-titration series using the NCGC unique quantitative screening (qHTS) platform to find activators for EPAC1. In addition, this assay will also be used as a counterscreen for the EPAC2 qHTS. This fluorescent based assay is developed and validated for EPAC1 that measures exchange using EPAC effector Rap1 complex with BODIPY-GDP, a GDP analog with a tethered fluorophores. Activators are identified by monitoring the change in fluorescence signal as the exchanged free BODIPY-GDP has a reduced fluorescence compared to Rap1-bound BODIPY-GDP. Increase in signal (activation) is the desired outcome for the EPAC1 agonist while no activity in this assay is desired for the EPAC2 agonist counterscreen.
[1] de Rooij, J., Zwartkruis, F. J., Verheijen, M. H., Cool, R. H., Nijman, S. M., Wittinghofer, A., and Bos, J.L. (1998) Nature 396, 474-477.
Briefly, three uL of reagents (100 nM EPAC1, 250 nM RAP1B-BODIPY-GDP, 50 uM GDP) were dispensed into a 1536-well Greiner black solid-bottom medium binding assay plate. Controls and test compounds (23 nL) were transferred to the plate via a Kalypsys pin tool equipped with a 1536-pin array. The plates were centrifuged at 1,000 rpm for 15 seconds followed by 5 minute incubation at room temperature. The assay plates were read at 5 minute intervals for 30 minutes in the ViewLux plate reader using 480nm excitation and 540nm emission filters. The results were normalized to the […] positive control ATA and DMSO.

Sequence of UniProt O95398 (O95398 whole entry, looked up): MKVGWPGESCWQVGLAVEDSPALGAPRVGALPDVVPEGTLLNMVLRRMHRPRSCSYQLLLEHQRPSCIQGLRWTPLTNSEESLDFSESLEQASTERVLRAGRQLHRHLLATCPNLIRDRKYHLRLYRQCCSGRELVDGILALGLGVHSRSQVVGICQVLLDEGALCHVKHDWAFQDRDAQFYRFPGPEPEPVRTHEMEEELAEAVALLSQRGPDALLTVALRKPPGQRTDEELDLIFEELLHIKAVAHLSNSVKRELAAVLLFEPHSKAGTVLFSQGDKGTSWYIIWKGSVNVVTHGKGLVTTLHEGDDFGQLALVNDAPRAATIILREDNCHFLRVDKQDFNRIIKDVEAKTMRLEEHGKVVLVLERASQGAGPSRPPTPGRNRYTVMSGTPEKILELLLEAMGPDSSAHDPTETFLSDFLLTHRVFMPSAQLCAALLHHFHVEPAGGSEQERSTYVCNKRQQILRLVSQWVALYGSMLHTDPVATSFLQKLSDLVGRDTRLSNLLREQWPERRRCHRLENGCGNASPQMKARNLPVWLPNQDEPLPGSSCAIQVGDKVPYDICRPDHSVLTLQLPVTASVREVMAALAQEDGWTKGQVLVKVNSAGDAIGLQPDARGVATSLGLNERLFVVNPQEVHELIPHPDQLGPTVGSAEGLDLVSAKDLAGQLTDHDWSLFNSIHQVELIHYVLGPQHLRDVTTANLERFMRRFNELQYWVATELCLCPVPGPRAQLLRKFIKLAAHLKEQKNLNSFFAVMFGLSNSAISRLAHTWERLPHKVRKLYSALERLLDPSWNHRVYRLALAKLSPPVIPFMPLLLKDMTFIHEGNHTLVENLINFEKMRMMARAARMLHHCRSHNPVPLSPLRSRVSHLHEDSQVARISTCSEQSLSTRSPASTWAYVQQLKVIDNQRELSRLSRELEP

Activity change, negative = inhibition, inactive:
COC(=O)c1cc(CNC(=O)c2ccccc2OC)cc(NC(=O)c2ccccc2F)c1 -11.5%
O=C(O)C1=CCNCC1
OCc1ccccc1 17.4%
COc1ncc2nc(-c3cccc(C#N)c3)c(=O)n(CCC#N)c2n1 -6.3%
CCn1c(=O)[nH]c2ccccc21 12.6%
CN(C)C(=O)[C@@H]1C[C@@H](Sc2nc3ccccc3[nH]2)CN1Cc1ccnc2ccccc12 13.1%
CC1(C)C2CC[C@]3(C)[C@H](C(=O)C=C4[C@@H]5C[C@@](C)(C(=O)O)CC[C@]5(C)CC[C@]43C)[C@@]2(C)CC[C@@H]1O[C@H]1O[C@H](C(=O)O)[C@@H](O)[C@H](O)[C@H]1O[C@@H]1O[C@H](C(=O)O)[C@@H](O)[C@H](O)[C@H]1O (stereo partly drawn) 9.54%
CN1CCC2(CC1)CCN(C(=O)c1ccncc1)CC2 6.83%
CCOc1ccc(CN2CCOc3ccc(C(O)c4cccnc4)cc3C2)cc1 (stereo not drawn) 8.72%
CC(O)[C@@H](N)C(=O)O (stereo partly drawn) 14.2%
C[C@H](N)C(=O)O 11.2%
CCc1ccccc1N(C)C 22.1%
NCC(O)c1ccc(O)c(O)c1 (stereo not drawn) -11.8% [at 75.8 µM]
COc1cccc(CN2CCC3(CCC(CNC(=O)c4ccco4)O3)CC2)c1OC (stereo not drawn) 4.54%
O=C(NCCO)c1cn(C2CCCN(Cc3cccc(C(F)(F)F)c3)C2)nn1 (stereo not drawn) 9.22%
O=c1ccc2c(OCCCCc3ccccc3)c3ccoc3cc2o1 -9.32% [at 75.8 µM]
Cc1cccc2c(N3CCCC3)nc(CNS(=O)(=O)c3ccc4ccccc4c3)nc12 -2.47%
Cn1cc(-c2nc3cncnc3n(C3CC3)c2=O)c2ccccc21 11.2%
O=C(c1cccc(F)c1)N1CCC[C@@]2(CCN(Cc3ccncc3)C2)C1 11.1%
CCn1cc(C(=O)O)c(=O)c2cc(F)c(N3CCNC(C)C3)c(F)c21 (stereo not drawn)
COc1ccc(CN2C[C@H](Cc3ccccc3)[C@@H](CC(=O)Nc3ccccc3)C2=O)cc1 3.61%
NC(=O)c1cc[n+](CC2=C(C(=O)O)N3C(=O)[C@@H](NC(=O)C(c4ccccc4)S(=O)(=O)[O-])[C@H]3SC2)cc1 (stereo partly drawn) -3.23% [at 75.8 µM]
COCCn1c(=O)c(-c2ccc(Cl)cc2)nc2cnc(N3CCOCC3)nc21 23.6%
CS(=O)(=O)Nc1ccc([N+](=O)[O-])cc1Oc1ccccc1
COc1cc(C)nc(-n2nc(C)cc2OC)n1 18.8% [at 75.8 µM]
CCOC(=O)CCC(=O)O[C@H]1[C@H](O[C@@H]2[C@@H](C)[C@H](O[C@H]3C[C@@](C)(OC)[C@@H](O)[C@H](C)O3)[C@@H](C)C(=O)O[C@H](CC)[C@@](C)(O)[C@H](O)[C@@H](C)C(=O)[C@H](C)C[C@@]2(C)O)O[C@H](C)C[C@@H]1N(C)C 14.8%
CCCCCCCCCCCCC/C=C\[C@@H](O)[C@@H](N)CO -2.06%
CCCCCCCCCCCCCCCCCCN(CCCCCCCCCCCCCCCCCC)c1ccc(/C=C/c2ccc(C=O)cc2)cc1 6.62%
Nc1ccc(C(=O)Nc2ccccc2N)cc1 3.53%
C[C@](N)(C(=O)O)c1ccc(-c2nn[nH]n2)cc1 -12.1%
COc1ccc2[nH]cc(CCNc3ncncc3-c3ccoc3)c2c1 -17.4%
Cc1ccccc1-n1cc(CNC(=O)CN2Cc3ccccc3OC(C)C2)cn1 (stereo not drawn) 1.56%
COc1cccc(C2(CC(=O)N3CCC(c4nc5ccccc5o4)CC3)CC(=O)N(C)C2=O)c1 (stereo not drawn) 7.68%
CN(Cc1ccco1)c1ncnc2ccc(-c3cccnc3)cc12 -9.15%
CC(=O)c1ccccc1-c1ccc2c(c1)CC(CNC(=O)Cc1c[nH]c3ccccc13)O2 (stereo not drawn) 5.91%
Nc1ncnc2nc(-c3ccc(N4CCOCC4)nc3)cc(-c3cccc(Br)c3)c12 -1.94% [at 75.8 µM]
C[C@]12C=CC(=O)C=C1CC[C@@H]1[C@@H]2C(=O)C[C@@]2(C)[C@H]1CC[C@]2(O)C(=O)CO 13.5%
C=CCn1c(=O)n([C@@H]2O[C@H](CO)[C@@H](O)[C@H]2O)c2nc(N)[nH]c(=O)c21 11.5%
O=C1CCN(Cc2ccc(Br)cc2)CCN1[C@H](CO)c1ccccc1 -20.5%
CN(C)C(=O)c1ccc(-c2nccc(NCc3ccccc3)n2)cc1 16.6%
C[C@]12C=CC(=O)C=C1CC[C@@H]1C2=CC[C@]2(C)[C@@H](C(=O)CN3CCN(c4cc(N5CCCC5)nc(N5CCCC5)n4)CC3)CC[C@@H]12 2.13% [at 75.8 µM]
CC(C)[C@@H]1NC(=O)[C@H](Cc2ccccc2)NC(=O)[C@@H](CC(=O)O)NC(=O)CNC(=O)[C@H](CCCNC(=N)N)NC1=O 22.4%
COc1ccccc1-c1nccc(NCc2cccc(C)c2)n1 18.2%
CN(C)C(=O)c1ccc(-c2cncnc2Nc2ccc(F)cc2)cc1 7.82%
COc1ccccc1CNc1ccnc(-c2cccnc2)n1 -1.54%
CN1CCN(C2=Nc3ccccc3Sc3ccc(Cl)cc32)CC1
O=C(O)c1cc(=O)c2c3nc4ccccc4oc-3cc(=O)c2[nH]1 -10.9%
CC1(C)[C@@H](O[C@H]2O[C@H](C(=O)O)[C@@H](O)[C@H](O)[C@H]2O[C@@H]2O[C@H](C(=O)O)[C@@H](O)[C@H](O)[C@H]2O)CC[C@]2(C)[C@H]3C(=O)C=C4[C@@H]5C[C@@](C)(C(=O)O)CC[C@]5(C)CC[C@@]4(C)[C@]3(C)CC[C@@H]12 18.7%
CO[C@H]1C[C@H](O[C@H]2[C@H](C)[C@@H](O[C@@H]3O[C@H](C)C[C@H](N(C)C)[C@H]3OC(C)=O)[C@@H](C)C[C@]3(CO3)C(=O)[C@H](C)[C@@H](OC(C)=O)[C@@H](C)[C@@H](C)OC(=O)[C@@H]2C)O[C@@H](C)[C@@H]1OC(C)=O -9.82% [at 75.8 µM]
COc1ccc2oc(-c3ccc(O)cc3)cc(=O)c2c1 9.89%
CCOC(=O)N1CCN(Cc2ccc3c(c2)CN(C(=O)c2cccc(-n4cccn4)c2)CCO3)CC1 5.74%
COc1ccc(-n2c(=O)c(-c3ccccc3)nc3cnc(N4CCN(C)CC4)nc32)cc1 10.7%
COc1cc(-c2cnc3ccccc3c2)cc2c1OCCN(C(=O)CCC(=O)c1ccc(F)cc1)C2 22.4%
O=C(N/N=C/c1ccccc1O)c1ccncc1 7.33%
C[C@@H]1CN(c2c(F)c(N)c3c(=O)c(C(=O)O)cn(C4CC4)c3c2F)C[C@H](C)N1 5.64%
O=c1n(CC2CO2)c(=O)n(CC2CO2)c(=O)n1CC1CO1 (stereo not drawn) 12%
Cn1c(=O)c2[nH]c(-c3ccc(S(=O)(=O)O)cc3)nc2n(C)c1=O
C[C@@H]1O[C@@H]1P(=O)(O)O -5.33%
Cn1cccc1C(=O)N1CCC2(CCCN(c3ncccn3)C2)CC1 6.68%
COc1cc(-c2c(-c3ccc4c(c3)OCO4)noc2C)ccc1F 1.48%
O=c1c(-c2ccc(F)c(F)c2)nc2cncnc2n1Cc1ccccc1Cl 7.86%
FC(F)(F)c1cc(CO[C@H]2CCCN[C@H]2c2ccccc2)cc(C(F)(F)F)c1 -3.45%
Cc1ccc(S(=O)(=O)NCl)cc1 16.9%
Nc1ccc(C=O)cc1 0.426%
COc1ccc(Oc2ncc3nc(-c4cn(C)c5ccccc45)c(=O)n(C)c3n2)cc1 -15%
CCC(=O)N[C@@H]1CCc2cccc(OC)c2C1 -11.3%
C/C(=C\CO)CCC(C)CCCC(C)CCCC(C)C (stereo not drawn) -14%
O=C(c1ccco1)N1CCC[C@@]2(CCN(c3cccc(-c4ccccc4)c3)C2)C1 4.7%
OCC1=CC[N+]2(Cc3ccccc3)CCC(O)[C@@H]12 (stereo partly drawn) 14.4%
COc1cccc(Nc2ncc3nc(-c4ccccc4)c(=O)n(C)c3n2)c1 30.8%
O=C(c1ccco1)N1CCC2(CC1)CCN(c1ccccn1)CC2 8.23%
COC(=O)[C@@H]1CCCN1S(=O)(=O)Cc1ccccc1 11.3%
CCN1CCCC1CNC(=O)c1cnn(-c2nccc(-c3ccccc3F)n2)c1C (stereo not drawn) 2.85%
CCCCO 26.9%
C=C1C2CC[C@@]3(C)C(c4ccoc4)OC(=O)C[C@@]13OC1CC(=O)C(C)(C)C(C(O)C(=O)OC)[C@]12C (stereo partly drawn) 4.44%
O=c1c(-c2cccs2)nc2cncnc2n1Cc1ccccc1 22.1%
COc1ccc(Oc2ncc3nc(-c4cccs4)c(=O)n(CCC#N)c3n2)cc1 4.99%
CCCCC(=O)Oc1ccccc1C(=O)O 1.66%
CC[C@]12CCCN3CCc4c(n(c5ccccc45)C(=O)C1)[C@@H]32 10.8% [at 75.8 µM]
C[C@@H]1CCC(=O)N(CC[C@H](Oc2ccccc2)c2ccccc2)CC1 0.915%
CC(N)(C(=O)O)c1ccc(C(=O)O)cc1 (stereo not drawn)
CC(=O)OCOC(c1ccc2ccccc2c1)P(=O)(OCOC(C)=O)OCOC(C)=O (stereo not drawn) 17.1% [at 201 µM]
CN1CCc2cccc3c2C1Cc1ccc(O)c(O)c1-3 (stereo not drawn)
CC#CCOC(=O)c1c(C)nc2sc3c(c2c1N)CCC(O)C3 (stereo not drawn) 11.6% [at 75.8 µM]
COC(=O)C1CCN(Cc2ccc3c(c2)CN(C(=O)c2cc(C)oc2C)CCO3)CC1 3.32%
O=C(Nc1cccc(F)c1)N1CCCC2(CCN(C(=O)c3cnccn3)CC2)C1 17%
CCOc1ccccc1CN1CCCC(c2nc(C)ncc2-c2ccc(F)cc2)C1 (stereo not drawn) 5.12%
COc1ccccc1C1CN(Cc2ccccc2O)Cc2ccccc2O1 (stereo not drawn) 0.157%
CC(N)(COP(=O)(O)O)C(=O)O (stereo not drawn) 18.2%
COc1ccc(-c2ccnc(-n3ncc(C(=O)NCc4cccnc4)c3C3CC3)n2)cc1F 5.56%
NC(=O)c1sc(-c2ccsc2)cc1N 14.6%
COc1ccc(/C=C/C(=O)N2CCc3c(cnc(C)c3CNC(=O)c3ccsc3)C2)cc1OC 8.3%
COc1ccccc1CNc1ccnc(-c2ccccc2Cl)n1 -19.3%
CCCCCCCCCCC(C)(C)C(=O)Nc1c(OC)cc(OC)cc1OC -8.27% [at 75.8 µM]
CN=C(N)NCCC[C@H](N)C(=O)O
CC(=O)NCCNc1ncnc2ccc(-c3ccccc3C(F)(F)F)cc12 5.62%
COc1ccc(F)c(CN2CCOc3ccc(CN4CCC(O)(c5cccnc5)CC4)cc3C2)c1 10.4%
COc1cc(OC)c(/C=C2/C(=O)Nc3ccccc32)c(OC)c1 14.5% [at 75.8 µM]
